According to article PMC11176775:

Biological target: GST-tag DNA polymerase β, full-length (1–335 amino acids) (UniProt P06746)
Assay: SPR; Biacore X-100, 25 °C; GST-tag polβ or APE1 immobilised on CM5 chip (EDC/NHS, 10 mM sodium acetate pH 4.0), his-tag LIG1 or LIGIIIα proteins as analytes; 10 mM Hepes pH 7.4, 150 mM NaCl, 3 mM EDTA, 0.005% P20; 1:1 (Langmuir) model; polβ truncated mutants (Fig. S2) tested likewise, orientation not given

Substance: DNA ligase 1 full-length ([…] amino acids) (a stretch of the chain, chain not printed) (enzyme; other documents disagree on this pair)
- Kd: 0.142 µM
